Measured values published in PubChem BioAssay AID1460 (National Center for Advancing Translational Sciences (NCATS), 2008).
Several values for one entry are separate records, joined by “and”; a condition that tells them apart may be missing. Equal values may be shown once. Hit rate of the full screen: of about 270,000 compounds, about 5,800 (2.1%) were called active. Inconclusive results, whose numbers are uncertain, are shown with a selection of clear calls. Calls come from the whole dose curve; as a rule, active = well fitted inhibition curve with a large enough effect; inconclusive = small, poorly fitted or top-dose-only effect; inactive = flat fitted curve, though single readings scatter. A potency beside an inconclusive call is a rough fit, not a confirmed value.
% is set by controls: 0 for no effect and ±100 for the full control effect; potency is the fitted concentration of half-maximal effect; tags give direction and shape of the fitted curve.
Note: nearly all actives have a fitted effect of over 55% in size.

The compounds below were run against Microtubule-associated protein tau (Homo sapiens) (UniProt P10636) (assay: qHTS for Inhibitors of Tau Fibril Formation, Thioflavin T Binding). Details: recombinant tau K18 P301L (four-repeat tau fragment), heparin-induced fibrillization, ThT fluorescence; series mostly up to 57.4 µM; activity, negative = inhibition: at the top concentration.
Chain of UniProt P10636 (P10636 whole entry, looked up, the tested form may be a part): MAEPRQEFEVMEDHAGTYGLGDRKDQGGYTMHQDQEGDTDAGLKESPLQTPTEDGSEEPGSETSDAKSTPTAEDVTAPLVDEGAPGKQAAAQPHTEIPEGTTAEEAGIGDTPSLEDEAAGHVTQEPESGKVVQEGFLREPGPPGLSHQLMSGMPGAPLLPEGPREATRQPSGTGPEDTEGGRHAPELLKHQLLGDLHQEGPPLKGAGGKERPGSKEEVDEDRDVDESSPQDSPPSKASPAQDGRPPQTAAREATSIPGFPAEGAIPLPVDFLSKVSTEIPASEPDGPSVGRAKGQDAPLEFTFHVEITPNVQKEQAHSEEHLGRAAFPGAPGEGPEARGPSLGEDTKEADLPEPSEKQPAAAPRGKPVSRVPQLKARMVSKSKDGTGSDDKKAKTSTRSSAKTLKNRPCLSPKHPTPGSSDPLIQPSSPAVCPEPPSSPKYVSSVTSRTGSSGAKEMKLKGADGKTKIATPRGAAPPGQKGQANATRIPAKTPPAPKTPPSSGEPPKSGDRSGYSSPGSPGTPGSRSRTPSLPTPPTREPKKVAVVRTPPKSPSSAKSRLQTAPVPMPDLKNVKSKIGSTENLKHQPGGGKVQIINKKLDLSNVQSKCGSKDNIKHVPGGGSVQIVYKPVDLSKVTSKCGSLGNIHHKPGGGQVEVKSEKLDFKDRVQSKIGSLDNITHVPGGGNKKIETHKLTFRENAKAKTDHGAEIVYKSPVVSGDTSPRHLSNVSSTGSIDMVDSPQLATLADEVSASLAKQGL
Outline: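 Tau K18 P301L fragment (15 uM unlabeled plus 0.24 uM Alexa 594-labeled) in 100 mM sodium acetate pH 7 with compound, fibrillization induced by 20 uM heparin for 6 hr at 37 C. Thioflavin T (30 uM) added, fluorescence read after 1 hr (ex 450, em 510 nm).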
In the case of `C=CCOc1ccc(C2NC(=S)NC3=C2CCc2ccccc23)cc1` (stereo not drawn), the Potency is reported as inconclusive: 39.8 µM [inhibitor, single point]. `CCCCS(=O)(=O)Nc1ccc(C)cn1` was tested, and the Potency was inconclusive: 20 µM [inhibitor, partial curve]. For `CCOc1ccccc1NC(=S)NCC1CCCO1` (stereo not drawn), the “activity, negative = inhibition” value was inactive: 9.41%. `CCOC(=O)COc1ccccc1C1C(C(=O)OC)=C(C)NC2=C1C(=O)c1ccccc12` (stereo not drawn) was tested, and the Potency was active: 14.1 µM. In the case of `O=C(COc1ccccc1Cl)Nc1nnc(S(=O)(=O)N2CCCCCC2)s1`, the Potency is reported as inconclusive: 2.51 µM [inhibitor, full curve]. In the case of `COc1ccc(NCc2cc3cc4c(cc3n(CC(=O)Nc3cc(C)cc(C)c3)c2=O)OCO4)cc1`, the Potency is reported as inconclusive: 15.8 µM [inhibitor, single point]. `Cn1c2ccccc2c2nnc(NN)nc21` was tested, and the Potency was inconclusive: 25.1 µM [inhibitor, partial curve]. With `Cc1nn2c(=O)cc(COc3ccc(/C=C(\C#N)C(=O)Nc4ccc(F)cc4)cc3)nc2s1` the Potency was inconclusive: 0.794 µM [inhibitor, full curve]. With `O=C(CNS(=O)(=O)/C=C/c1ccccc1)OCC(=O)N1CCC(Cc2ccccc2)CC1` the Potency was inconclusive: 28.2 µM [inhibitor, partial curve, poor fit]. For `O=C(Nc1ccccc1)Nc1ccc(F)c([N+](=O)[O-])c1`, the Potency was inconclusive: 20 µM [inhibitor, single point]. With `CS(=O)(=O)c1ccc(C(=O)OCc2nnc(-c3ccc(Cl)cc3)o2)cc1[N+](=O)[O-]` the Potency was inconclusive: 14.1 µM [inhibitor, partial curve]. In the case of `COc1ccc(Nc2nc(N/N=C/c3ccc(N(C)C)cc3)nc(C)c2[N+](=O)[O-])cc1`, the Potency is reported as active: 3.16 µM. In the case of `O=c1oc2ccc3ccccc3c2cc1-c1nnc(-c2cccs2)o1`, the Potency is reported as inconclusive: 14.1 µM [inhibitor, partial curve]. For `Cc1cccc(NC(=O)C2CCC(CNS(=O)(=O)c3csc(C(N)=O)c3)CC2)c1C` (stereo not drawn), the “activity, negative = inhibition” value was inactive: -3.21%. With `Cc1ccc(S(=O)(=O)c2nc(S(C)(=O)=O)sc2N(C)Cc2ccccc2)cc1` the “activity, negative = inhibition” value was inactive: -6.18%. `CCCNC(=S)N1CC2(C)CN(C(=O)C(=O)OCC)CC(C)(C1)C2=O` was tested, and the “activity, negative = inhibition” value was inactive: -7.48%. For `COc1cccc(C2CC(=O)N(c3ccc(F)cc3)C3=C2C(=O)OC3)c1OC` (stereo not drawn), the “activity, negative = inhibition” value was inactive: -0.117%. `COc1ccc(-c2nnc(N(C)C(=O)c3ccno3)s2)cc1` was tested, and the Potency was inconclusive: 35.5 µM [inhibitor, single point]. For `COc1ccc(C2C(C#N)=C(N)OC(C(C)(C)C)=C2C#N)cc1OC` (stereo not drawn), the Potency was inconclusive: 25.1 µM [inhibitor, partial curve]. For `Cc1ccc(OCC(=O)Nc2ccc(Cl)c(-c3nc4ncccc4o3)c2)c(C)c1`, the Potency was inconclusive: 7.94 µM [inhibitor, full curve]. In the case of `Cc1ccc(C)c(C(=O)c2c(N)c(-c3nc(-c4ccc5c(c4)OCO5)cs3)c3ccccn23)c1`, the Potency is reported as inconclusive: 0.794 µM [inhibitor, full curve, poor fit]. `O=C(CSc1ncccc1-c1nc2ccccc2[nH]1)N1CCN(c2ccccc2F)CC1` was tested, and the Potency was inconclusive: 11.2 µM [inhibitor, partial curve]. With `Cc1sc2nc(SCC(=O)N(C)C)[nH]c(=O)c2c1C` the “activity, negative = inhibition” value was inactive: -8.6%. With `CCCc1nn2c(=O)cc(COC(=O)c3ccccc3NC(=O)c3cccs3)nc2s1` the “activity, negative = inhibition” value was inactive: 4.47%. With `COc1ccc(N(Cc2cccs2)C(=O)c2ccc(OCC(C)C)cc2)cc1` the Potency was inconclusive: 12.6 µM [inhibitor, single point]. In the case of `Cc1ccc(C)c(C(=O)COc2ncnc3ccccc23)c1`, the “activity, negative = inhibition” value is reported as inactive: 0.214%. In the case of `Cc1nnc(N/N=C/c2ccc(O)c([N+](=O)[O-])c2)[nH]c1=O`, the Potency is reported as inconclusive: 2.24 µM [inhibitor, partial curve]. With `COc1ccccc1Nc1nnc(SCC(=O)c2cc(C)n(CC3CCCO3)c2C)s1` (stereo not drawn) the Potency was inconclusive: 14.1 µM [inhibitor, partial curve]. With `O=C(C[n+]1cccc(NC(=O)c2ccccc2)c1)c1cccc([N+](=O)[O-])c1` the Potency was inconclusive: 11.2 µM [inhibitor, partial curve, poor fit]. With `COc1cc(/C=N/NS(=O)(=O)c2ccc(C(C)(C)C)cc2)cc([N+](=O)[O-])c1O` the Potency was inconclusive: 14.1 µM [inhibitor, partial curve]. For `Cc1cc(N2C(=O)CC(N3CCN(c4ccc(C(=O)c5cccs5)cc4)CC3)C2=O)no1` (stereo not drawn), the Potency was inconclusive: 35.5 µM [inhibitor, partial curve]. `Fc1ccc(N/N=C2/CC(c3ccccc3)Oc3ccccc32)c(F)c1` (stereo not drawn) was tested, and the Potency was inconclusive: 20 µM [inhibitor, partial curve]. With `CCC(C)c1c(O)nc(SCC(=O)N2CCOCC2)[nH]c1=O` (stereo not drawn) the Potency was inconclusive: 28.2 µM [inhibitor, partial curve]. With `COc1cc(NC(=O)Nc2cccc(-c3noc(C)n3)c2)cc(OC)c1OC` the Potency was inconclusive: 11.2 µM [inhibitor, partial curve]. `Cc1cn2c(=O)cc(COc3ccc(Cl)cc3)nc2s1` was tested, and the Potency was inconclusive: 1 µM [inhibitor, full curve, poor fit]. For `CC(=O)c1ccc(NC(=S)NCCc2ccccn2)cc1`, the Potency was inconclusive: 15.8 µM [inhibitor, partial curve]. In the case of `Nc1c(C(=O)Nc2ccc(S(=O)(=O)N3CCCC3)cc2)sc2nc3ccc(OC(F)(F)F)cc3cc12`, the Potency is reported as active: 5.62 µM. In the case of `CCOc1ccc(NC(=S)NNC(=O)c2cc(Br)ccc2Cl)cc1`, the Potency is reported as inconclusive: 3.98 µM [inhibitor, full curve]. In the case of `Cc1cccc(NC(=O)COC(=O)c2cccc3c2C(=O)c2ccccc2C3=O)c1C`, the Potency is reported as inconclusive: 17.8 µM [inhibitor, partial curve, poor fit]. `CSc1ccc(/C=N/NC(=O)CN2CCN(Cc3ccc(Cl)cc3)CC2)cc1` was tested, and the Potency was inconclusive: 0.631 µM [activator, full curve, poor fit]. `Nc1nonc1NC(=O)NN=C1CCCCC1` was tested, and the “activity, negative = inhibition” value was inactive: -3.58%. For `Cc1ccccc1C(=O)Nc1ccc2nc(SCC(=O)N3CCc4ccccc43)sc2c1`, the Potency was inconclusive: 1.41 µM [inhibitor, full curve, poor fit]. In the case of `O=C(COC(=O)c1cc(=O)[nH]c2ccccc12)Nc1nc(-c2ccccc2)cs1`, the Potency is reported as inconclusive: 20 µM [inhibitor, partial curve]. For `Cc1cccc(NC(=O)c2ccc(NC(C)c3ccccc3)c([N+](=O)[O-])c2)n1` (stereo not drawn), the Potency was inconclusive: 10 µM [inhibitor, partial curve]. In the case of `CCOC(=O)c1ccc(S(=O)(=O)Nc2nc3cc(S(=O)(=O)NC4=NCCCCC4)ccc3s2)cc1`, the Potency is reported as active: 11.2 µM. For `O=c1c2c3c(sc2nc2n1CCCCC2)CCCC3`, the Potency was inconclusive: 44.7 µM [inhibitor, single point]. `CC(C)c1nn2c(=O)cc(COC(=O)c3cccc(NC(=O)c4cccs4)c3)nc2s1` was tested, and the Potency was inconclusive: 0.631 µM [inhibitor, full curve, poor fit]. In the case of `O=C1CCC/C(=N\NC(=O)c2ccc(COc3cccc4cccnc34)cc2)C1`, the Potency is reported as inconclusive: 14.1 µM [inhibitor, partial curve]. `CCCn1c(SCC(=O)Nc2ccccc2N2CCCCC2)nc2c1c(=O)n(C)c(=O)n2C` was tested, and the “activity, negative = inhibition” value was inactive: -3.86%. For `O=[N+]([O-])c1cc(-c2ccc(/C=N/c3nc4ccccn4c3-c3ccco3)o2)ccc1Cl`, the Potency was active: 11.2 µM. With `Cc1ccc(Cn2ncc3c(N4CCN(Cc5ccc(Cl)cc5)CC4)ncnc32)cc1` the Potency was inconclusive: 14.1 µM [inhibitor, partial curve]. In the case of `COc1ccc(CNS(=O)(=O)NCc2ccc(C)cc2)cc1OC`, the “activity, negative = inhibition” value is reported as inactive: -2.1%. For `CC(C)n1c(SCCCc2ccccc2)nc2c1c(=O)[nH]c(=O)n2C`, the “activity, negative = inhibition” value was inactive: -17.8%. In the case of `CN=C1C([N+](=O)[O-])=CC=C2C1=NC1(CCCCC1)N2O`, the “activity, negative = inhibition” value is reported as inactive: -0.838%. For `Cc1cc(-c2ccc(/C=N/n3cnnc3)o2)c([N+](=O)[O-])cc1C`, the “activity, negative = inhibition” value was inactive: 5.29%. With `COc1cccc(CNc2ccc3nc(-c4ccc(N)cc4)c(OC)n3n2)c1` the Potency was inconclusive: 7.94 µM [inhibitor, partial curve] and inconclusive: 17.8 µM [inhibitor, partial curve]. For `Fc1ccc(N/N=C/c2ccncc2)c(F)c1`, the Potency was inconclusive: 0.891 µM [inhibitor, single point]. With `Cc1ccc(OCC(=O)OC2=C(C(=O)c3ccccc3)N(C)S(=O)(=O)c3ccccc32)cc1` the Potency was inconclusive: 10 µM [inhibitor, partial curve]. In the case of `CC(=O)Nc1nn(C)c2nc(C)cc(C)c12`, the “activity, negative = inhibition” value is reported as inactive: 2.9%. In the case of `COc1ccc2c(c1)Cc1sc(NC(=O)c3cccc(C)c3)nc1-2`, the Potency is reported as active: 12.6 µM. `COc1ccc(-c2ccnc(-c3ccc(O)cc3)n2)cc1` was tested, and the Potency was inconclusive: 5.01 µM [inhibitor, full curve]. `O=[N+]([O-])c1ccc(CSc2ncnc3ccccc23)cc1` was tested, and the Potency was inconclusive: 10 µM [inhibitor, partial curve]. `CC(C)(C)OC(=O)N1Cc2ccccc2C[C@H]1C(=O)O` was tested, and the “activity, negative = inhibition” value was inactive: -4.36%. For `COc1cccc(NC(=O)CN(C)CC(=O)NC(C)c2ccccc2)c1` (stereo not drawn), the “activity, negative = inhibition” value was inactive: 5.26%. `Cc1cc(C)cc(-n2ccn(Cc3ccccc3C)c(=O)c2=O)c1` was tested, and the “activity, negative = inhibition” value was inactive: -0.173%. With `Cc1cc(C)cc(NC(=O)C2CCCN2S(=O)(=O)c2ccc3c(c2)CCCC(=O)N3)c1` (stereo not drawn) the “activity, negative = inhibition” value was inactive: -0.493%. For `CC(C)N=C1NN=C(c2ccc(Cl)c(Cl)c2)CS1`, the Potency was inconclusive: 25.1 µM [inhibitor, partial curve]. In the case of `CCn1c(COc2ccc(=O)n(-c3ccccc3)n2)n[nH]c1=S`, the “activity, negative = inhibition” value is reported as inactive: 0.115%.
